# Reference: the supplement of paper PMC3334620
# The full ranking holds about 33,000 sequences; the median of “E-score (-0.5 to 0.5)” is about -0.04, and the highest 2% start at about 0.36. The list shows a part of the results.
# Biological target: T1, Hmlalpha2 (UniProt P0CY09)
# T1 sequence: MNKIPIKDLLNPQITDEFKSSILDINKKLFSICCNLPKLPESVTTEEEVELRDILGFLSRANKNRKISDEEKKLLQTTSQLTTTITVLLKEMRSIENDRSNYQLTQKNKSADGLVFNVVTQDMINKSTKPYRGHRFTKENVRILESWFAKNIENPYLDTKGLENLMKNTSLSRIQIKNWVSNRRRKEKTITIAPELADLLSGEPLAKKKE
# Assay: PBM E-score (8-mer binding enrichment) (E-score (-0.5 to 0.5)); higher = stronger / more preferred TF binding; most listed sequences are background and not binding sites
# Conditions: protein concentration: 200 nM; construct: GST-full length
# Procedure, shortened: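 Yeast transcription factors carrying a GST tag, as full-length proteins or DNA-binding domains, were produced by PURExpress in vitro transcription/translation. About 100-200 nM protein was applied to universal all-10-mer Agilent arrays, double-stranded by primer extension on fresh or once-stripped slides. Bound protein was detected with fluorescent anti-GST, and scans were normalised with masliner. The Universal PBM Analysis Suite gave each ungapped eight-base word, pooled with its reverse complement, an E-score, a modified Wilcoxon-Mann-Whitney statistic.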
row,Sequence,PBM E-score
1,AACGTCCG,-0.175
2,ACTACGAA,0.107
3,GTTCCCTA,0.0562
4,GCTACCTA,0.0181
5,GTGATGCA,0.0568
6,GTGGAGAA,-0.195
7,TACGCGTA,0.409
8,CCTTCGCA,-0.15
9,CGGGTTGA,-0.0908
10,CCTGGAAA,-0.14
11,AAACGGCC,-0.0779
12,CTCAGCAC,0.0215
13,CACCAGCA,-0.128
14,ACGCAACA,0.349
15,GATCACCA,-0.16
16,CCGGGGTC,-0.0429
17,ATCAAGGC,-0.0177
18,ACATCCGT,0.0696
19,ATGGCTGG,-0.104
20,ATGAGAGC,-0.0514
21,GTATGACA,0.22
22,ATCATTGA,0.16
23,CTTCCGCC,-0.279
24,AGGCACGC,-0.188

row,Sequence,PBM E-score
1,TTAACGAA,0.233
2,GAACTTAA,-0.00724
3,CCACTATC,-0.196
4,GTTTGCTA,0.109
5,GTAACATA,0.355
6,CTTGTAGA,0.253
7,CGTCTATC,0.0314
8,CAGTTTCA,-0.0961
9,CGAACTAG,-0.0887
10,GTACCCAC,-0.0853
11,CATAGTAC,-0.0469
12,GAACCCTC,-0.223
13,GGTTCCGA,-0.176
14,TTCCGCAA,0.0155
15,AGGCGCAA,-0.0755
16,ATCCGAAG,-0.159
17,ATATCCCG,-0.0536
18,ATCACCAA,-0.0593
19,CCCGGACG,-0.198
20,AGACCGCC,-0.118
21,CCCAGAGG,-0.434
22,CGCATTTA,0.213
23,ATCCCACC,-0.101
24,TAGGCGGA,0.0174

row,Sequence,PBM E-score
1,TTGCGCAA,0.133
2,AGCAGTGC,-0.118
3,CAACCTTG,0.0793
4,CGGTGGGC,-0.262
5,AATTTACT,0.296
6,ACATCGAC,0.112
7,TAGGGTCA,-0.141
8,CTCAGATA,-0.0173
9,AACTTCGA,0.085
10,AATAACAT,0.412
11,AGAACGTG,0.116
12,CAGGCGCA,-0.114
13,AAGTATGT,0.286
14,CTTATTGC,-0.172
15,GATTAGCC,-0.0296
16,CAATGCCG,-0.0554
17,AAATACGG,0.0784
18,TATTCTCA,0.113
19,CTTCGACC,-0.167
20,AATTTGCC,-0.173
21,ATACCAAT,0.033
22,ATAAGAAC,0.21
23,CACATGAA,0.237
24,CTAAGAAC,-0.0411

row,Sequence,PBM E-score
1,TCTTCGAA,-0.118
2,ATCAGCGG,-0.205
3,AACTTATA,0.219
4,ACGAGTAG,-0.0379
5,CAGCACGG,-0.0953
6,CCCTAGTC,-0.313
7,AGGCTCTC,-0.123
8,CCACCGTA,-0.145
9,CTGACGCA,-0.203
10,GAAGGCTC,-0.28
11,CCGTGACC,-0.278
12,CTGTGCAA,0.0797
13,GCAGTGAA,0.0998
14,AACGGTGT,-0.0157
15,CAGTACTC,-0.222
16,CACACATA,0.214
17,CCTGAGCG,-0.14
18,TACGTCAA,0.116
19,AACCCAGA,-0.0627
20,ACCATTAA,0.0917
21,ATTCCTTA,-0.034
22,AACTAATG,0.232
